Assay results: PubChem BioAssay AID504845 (National Center for Advancing Translational Sciences (NCATS), 2011)
Screen size: about 390,000 compounds; about 150 (0.038%) were called active. Inconclusive means that the source gave no clear call. Such entries were picked first, then a sample of the others. Calls come from the whole dose curve; as a rule, active = well fitted inhibition curve with a large enough effect; inconclusive = small, poorly fitted or top-dose-only effect; inactive = no such curve, though single readings can be large or run the other way. Potencies beside an inconclusive call are fits to weak or partial responses and may not hold up.

biological target: Regulator of G-protein signaling 4 (Homo sapiens) (UniProt P49798); test: Inhibitors of Regulator of G Protein Signaling (RGS) 4: qHTS; conditions: Transcreener GDP fluorescence polarization, RGS4-accelerated GTP hydrolysis; series mostly up to 114 µM; activity change, negative = inhibition: at the top concentration; note: nearly all actives have a fitted effect of over 75% in size
Chain of UniProt P49798 (P49798 whole entry, looked up): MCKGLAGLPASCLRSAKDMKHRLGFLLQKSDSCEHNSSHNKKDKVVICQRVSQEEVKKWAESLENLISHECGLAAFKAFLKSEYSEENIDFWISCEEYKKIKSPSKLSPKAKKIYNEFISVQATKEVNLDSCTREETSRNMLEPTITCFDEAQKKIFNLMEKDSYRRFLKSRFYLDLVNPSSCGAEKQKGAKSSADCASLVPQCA
Procedure, shortened: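 MLSMR compounds (23 nl, pin-transferred) preincubated 10 min at room temperature with a 500nM (2x) first reagent, then RGS4 at 900nM (2x) plus Transcreener GDP mix added; fluorescence polarization (620/688 nm) read before and after 90 min at 30 °C.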
% is set by controls: 0 for no effect and ±100 for the full control effect; potency is the fitted concentration of half-maximal effect; tags give direction and shape of the fitted curve.

Q: For `CC1(C)CC(=O)C2=C(C1)N(c1ccccc1)C(=O)CC2c1ccc(O)cc1` (centres undefined), which Potency is on record?
A: Its Potency is inconclusive: 89.1 µM [inhibitor, single point].

Q: Which “activity change, negative = inhibition” value does the source give for `Cc1cc2n(n1)SC(Nc1ccc(F)c(Cl)c1)N2` (centres undefined) here?
A: The value was inactive: -38.2%.

Q: Which “activity change, negative = inhibition” value does the source give for `CCN(CC(=O)Nc1c(F)cccc1F)C(=O)/C=C/c1ccc(OCC#N)c(OC)c1` here?
A: The value was inactive: 11.3%.

Q: With `COc1ccc(C(NC(=O)C2CCCCC2)c2c(O)ccc3ccccc23)cc1` (centres undefined) as the compound, how does the Potency read?
A: Its Potency is inconclusive: 79.4 µM [inhibitor, single point].

Q: How did the “activity change, negative = inhibition” value turn out when `Clc1ccc(-c2ccc(SCc3ccccn3)nn2)cc1` was run?
A: Its value is inactive: -17%.

Q: With `Cc1ccc(C(c2sc3nc(C)nn3c2O)N2CCN(c3ccccc3F)CC2)cc1` (centres undefined) as the compound, how does the Potency read?
A: Its Potency is inconclusive: 100 µM [inhibitor, partial curve, poor fit].

Q: With `CCCCCCCCC#Cc1nc(C)ccc1OC` as the compound, how does the “activity change, negative = inhibition” value read?
A: The value was inactive: 6.47%.

Q: How did the “activity change, negative = inhibition” value turn out when `COC(=O)c1cc(NC(=O)c2c(Cl)cnn2C)cc(C(=O)OC)c1` was run?
A: Its value is inactive: 5.83%.

Q: How did the Potency turn out when `O=C(c1ccccc1)N1CCOC(O)(c2ccccc2)C1c1ccccc1` (centres undefined) was run?
A: Its Potency is inconclusive: 89.1 µM [inhibitor, single point].

Q: For `COC(=O)c1ccccc1NC(=O)CSc1nc2sc3c(c2c(=O)[nH]1)CCCC3`, which Potency is on record?
A: Its Potency is inconclusive: 44.7 µM [inhibitor, partial curve, poor fit].

Q: For `Cc1ccc(C(=O)c2cn(Cc3ccc(F)cc3)c3nc(C)ccc3c2=O)cc1`, which Potency is on record?
A: The Potency was inconclusive: 39.8 µM [inhibitor, partial curve, poor fit].

Q: With `COc1ccc(Cl)cc1NC(=O)c1c(C(=O)Nc2cccc(C)c2C)sc2nc(C)cc(=O)n12` as the compound, how does the Potency read?
A: Its Potency is inconclusive: 44.7 µM [inhibitor, partial curve, poor fit].

Q: `COc1ccc2cc(C(=O)N(C)Cc3ccccc3)[nH]c2c1` was tested. Which “activity change, negative = inhibition” value did it give?
A: The value was inactive: -2.91%.

Q: For `COc1ccc(NC(=O)CNc2cccc(C#N)c2)cc1Cl`, which “activity change, negative = inhibition” value is on record?
A: The value was inactive: -3.32%.

Q: For `CC1=[N+](C)c2c(ccc3cccnc23)C1(C)C`, which Potency is on record?
A: The Potency was inconclusive: 17.8 µM [inhibitor, full curve, poor fit].

Q: For `COC(=O)C1=C(C)NC(=O)NC1c1ccc(-c2ccccc2Cl)o1` (centres undefined), which Potency is on record?
A: The Potency was inconclusive: 79.4 µM [inhibitor, partial curve, poor fit].

Q: For `COc1ccc(/C=C/c2nnc(NC(C)=O)s2)cc1`, which Potency is on record?
A: The Potency was inconclusive: 100 µM [inhibitor, single point].

Q: With `O=C(N/N=C/c1ccccn1)c1cc(C2CC2)nc2ccccc12` as the compound, how does the “activity change, negative = inhibition” value read?
A: The value was inactive: -2.89%.

Q: With `NC(=O)c1ccsc1NC(=O)c1ccc(N2CCCC2=O)cc1` as the compound, how does the Potency read?
A: Its Potency is inconclusive: 50.1 µM [inhibitor, partial curve, poor fit].

Q: `Cc1cc(C)cc(N(CC(=O)N2CCN(c3ccccc3)CC2)S(=O)(=O)c2c(C)noc2C)c1` was tested. Which Potency did it give?
A: Its Potency is inconclusive: 100 µM [inhibitor, partial curve, poor fit].

Q: For `O=C(CSc1nnc(-c2ccc(Cl)cc2)n1CC1CCCO1)NC1CCS(=O)(=O)C1` (centres undefined), which “activity change, negative = inhibition” value is on record?
A: Its value is inactive: 11.7%.

Q: With `O=C(Cc1cc(=O)oc2cc(O)ccc12)NCC1CCC(C(=O)O)CC1` (centres undefined) as the compound, how does the “activity change, negative = inhibition” value read?
A: The value was inactive: 24.5%.

Q: Which Potency does the source give for `CC(=O)Oc1ccc(/C=C2/C(=O)N(c3ccccc3)N=C2C)cc1` here?
A: Its Potency is inconclusive: 56.2 µM [inhibitor, partial curve, poor fit].

Q: For `CC(=O)c1ccc(C(=O)N(CCCN(C)C)c2nc3c(C)c(C)ccc3s2)cc1`, which “activity change, negative = inhibition” value is on record?
A: The value was inactive: 9.66%.

Q: For `CCOc1cccc(C(=O)Nc2c(C(=O)c3ccc(OC)cc3)oc3ccccc23)c1`, which “activity change, negative = inhibition” value is on record?
A: Its value is inactive: 12.8%.

Q: For `CC(CC(=O)c1ccc(F)cc1)N1CCN(c2ccccc2)CC1` (centres undefined), which “activity change, negative = inhibition” value is on record?
A: Its value is inactive: -10.9%.

Q: `Cc1ccc(NC(=S)NC(NC(=O)c2ccco2)C(Cl)(Cl)Cl)cc1` (centres undefined) was tested. Which “activity change, negative = inhibition” value did it give?
A: The value was inactive: -34.3%.

Q: How did the “activity change, negative = inhibition” value turn out when `O=C(O)c1cccc(NC(=O)c2ccc(Cl)c(S(=O)(=O)N3CCCCCC3)c2)c1` was run?
A: Its value is inactive: 18.9%.

Q: With `COCCOc1cc(Nc2nnc(C(F)(F)F)s2)c(Cl)cc1Cl` as the compound, how does the “activity change, negative = inhibition” value read?
A: Its value is inactive: 41.6%.

Q: With `[O-]/C(=C(\C(=S)NCc1ccco1)[n+]1ccccc1)c1ccccc1Br` as the compound, how does the Potency read?
A: The Potency was inconclusive: 70.8 µM [inhibitor, partial curve, poor fit].

Q: With `NC(=S)c1cc2cc(Br)ccc2oc1=O` as the compound, how does the Potency read?
A: The Potency was inconclusive: 79.4 µM [inhibitor, partial curve, poor fit].

Q: For `CCC(C(=O)Nc1ccsc1C(=O)OC)c1ccccc1` (centres undefined), which Potency is on record?
A: Its Potency is inconclusive: 100 µM [inhibitor, single point].

Q: How did the Potency turn out when `CCOC(=O)N1CCc2c(sc(NCc3ccc(OCC)cc3)c2C(=O)Nc2ccc(OC)cc2OC)C1` was run?
A: The Potency was inconclusive: 89.1 µM [inhibitor, partial curve, poor fit].

Q: Which Potency does the source give for `CN1/C(=C\C=C2/SC(=S)NC2=O)C(C)(C)c2ccccc21` here?
A: Its Potency is inconclusive: 79.4 µM [inhibitor, partial curve, poor fit].

Q: For `CN(C)/N=C/C=C1\CCC/C(=C\c2ccc(F)c(F)c2)C1=O`, which Potency is on record?
A: The Potency was inconclusive: 100 µM [inhibitor, partial curve, poor fit].

Q: `CS(=O)(=O)c1ccc(-c2nc(-c3ccc(F)cc3)c(-c3ccncc3)[nH]2)cc1` was tested. Which Potency did it give?
A: Its Potency is inconclusive: 0.006 µM [inhibitor, full curve, poor fit].

Q: For `O=C(CN(Cc1ccccc1)C1=NCCS1)c1ccccc1`, which “activity change, negative = inhibition” value is on record?
A: The value was inactive: -14%.

Q: Which Potency does the source give for `O=C(COc1ccccc1C(=O)NCc1ccncc1)Nc1ccc(Br)cc1` here?
A: Its Potency is inconclusive: 28.2 µM [inhibitor, full curve, poor fit].

Q: Which Potency does the source give for `Cc1ccsc1/C=N/Nc1ccc(F)cc1F` here?
A: The Potency was inconclusive: 44.7 µM [inhibitor, partial curve, poor fit].

Q: Which Potency does the source give for `COc1cccc(/C=C/C(=O)OCC(=O)c2ccc3c(c2)NC(=O)CO3)c1` here?
A: The Potency was inconclusive: 39.8 µM [inhibitor, partial curve, poor fit].

Q: `CC(C)(C)OC(=O)[C@H](Cc1ccccc1)NC(=O)c1nc[nH]c1C(=O)N1CCN(c2ccccc2)CC1` was tested. Which Potency did it give?
A: Its Potency is inconclusive: 44.7 µM [inhibitor, partial curve, poor fit].

Q: With `CCc1ccc(S(=O)(=O)c2nnn3c2nc(NCc2cccs2)c2sccc23)cc1` as the compound, how does the “activity change, negative = inhibition” value read?
A: Its value is inactive: 8.8%.

Q: For `COc1ccc(Cn2nnnc2C(c2cc3ccc(OC)cc3[nH]c2=O)N2CCCCCC2)cc1` (centres undefined), which Potency is on record?
A: The Potency was inconclusive: 56.2 µM [inhibitor, partial curve, poor fit].

Q: How did the Potency turn out when `Cc1ccc2ncnc(Nc3cccc([N+](=O)[O-])c3)c2c1` was run?
A: Its Potency is inconclusive: 79.4 µM [inhibitor, partial curve, poor fit].

Q: With `CCc1ccccc1Nc1nn2c(=O)c3ccc(C(=O)NCc4cccs4)cc3nc2s1` as the compound, how does the Potency read?
A: The Potency was inconclusive: 50.1 µM [inhibitor, partial curve, poor fit].

Q: With `Cc1cc(C)c(-c2csc(NC(=O)/C=C/c3cccs3)n2)c(C)c1` as the compound, how does the “activity change, negative = inhibition” value read?
A: The value was inactive: 25.3%.

Q: `Cc1ccc(SCc2[nH]nc3c2C(c2ccco2)C(C#N)=C(N)O3)cc1` (centres undefined) was tested. Which Potency did it give?
A: Its Potency is inconclusive: 39.8 µM [inhibitor, partial curve, poor fit].

Q: `CC(C)CCNC(=O)NC(=O)COC(=O)/C=C/c1cc(Br)ccc1F` was tested. Which Potency did it give?
A: The Potency was inconclusive: 28.2 µM [inhibitor, full curve, poor fit].

Q: Which Potency does the source give for `Cc1ccc(S(=O)(=O)N(C)C)cc1NC(=S)Nc1ccc2cn[nH]c2c1` here?
A: Its Potency is inconclusive: 112 µM [inhibitor, partial curve, poor fit].

Q: For `COCCCNc1nc2c(c(=O)n(C)c(=O)n2C)n1Cc1cccc(OC)c1`, which Potency is on record?
A: Its Potency is inconclusive: 89.1 µM [inhibitor, single point].

Q: Which “activity change, negative = inhibition” value does the source give for `COc1ccc(S(=O)(=O)NC(C)C)cc1C(=O)N1CCOCC1` here?
A: Its value is inactive: 30.7%.

Q: For `CCCCCOc1ccc(CN2CCOCC2)cc1Cl`, which “activity change, negative = inhibition” value is on record?
A: The value was inactive: -11.4%.

Q: Which Potency does the source give for `COc1cc(/C=C2/C(=O)ON=C2C)ccc1OCc1cccc(F)c1` here?
A: Its Potency is inconclusive: 17.8 µM [inhibitor, full curve, poor fit].

Q: How did the Potency turn out when `CC(=O)c1cc(O)c2ccccc2c1O` was run?
A: The Potency was inconclusive: 31.6 µM [inhibitor, full curve, poor fit].

Q: `O=C(Cn1c(=O)oc2cc(S(=O)(=O)N3CCCCC3)ccc21)Nc1cccc(Cl)c1` was tested. Which “activity change, negative = inhibition” value did it give?
A: Its value is inactive: 7.56%.

Q: With `O=[N+]([O-])c1cc([N+](=O)[O-])c(Oc2cc(F)cc(F)c2)cc1NN1CCCCC1` as the compound, how does the Potency read?
A: The Potency was inconclusive: 56.2 µM [inhibitor, partial curve, poor fit].

Q: With `Cc1ccnc(NC(=O)c2cccc(NS(=O)(=O)c3ccccc3C)c2)c1` as the compound, how does the Potency read?
A: Its Potency is inconclusive: 89.1 µM [inhibitor, single point].

Q: With `Fc1ccc(NC(=S)Nc2cc(-c3ccccc3)[nH]n2)cc1Cl` as the compound, how does the “activity change, negative = inhibition” value read?
A: Its value is inactive: -21.9%.

Q: How did the Potency turn out when `O=C(Cn1cc(COc2ccc(Br)cc2[N+](=O)[O-])nn1)c1ccc(O)cc1` was run?
A: The Potency was inconclusive: 79.4 µM [inhibitor, partial curve, poor fit].

Q: For `c1cnc(SCCCOc2ccc3ccccc3c2)nc1`, which “activity change, negative = inhibition” value is on record?
A: Its value is inactive: 11.3%.

Q: For `COCCNC(=O)/C(C#N)=C/c1cc(C)n(-c2ccc(C)cc2)c1C`, which Potency is on record?
A: Its Potency is inconclusive: 70.8 µM [inhibitor, single point].

Q: How did the Potency turn out when `Fc1ccc(C(c2ccc(F)cc2)N2CCN(CC=Cc3ccccc3)CC2)cc1` was run?
A: The Potency was inconclusive: 0.067 µM [inhibitor, full curve, poor fit].

Q: `O=C(CSc1nnc(CN2CCOCC2)n1-c1ccccc1)N1CCc2ccccc21` was tested. Which “activity change, negative = inhibition” value did it give?
A: Its value is inactive: 0.131%.

Q: Which Potency does the source give for `CC(C)c1ccc2c(c1)C(=O)NC(C)(C)C2` here?
A: The Potency was inconclusive: 56.2 µM [inhibitor, partial curve, poor fit].

Q: `COc1ccc(NC(=O)CSc2nnc(C3CC3)n2C)cc1` was tested. Which Potency did it give?
A: The Potency was inconclusive: 17.8 µM [inhibitor, full curve, poor fit].

Q: With `Cc1ccc(CNC(=O)CSCc2cccc(F)c2)cc1` as the compound, how does the Potency read?
A: The Potency was inconclusive: 50.1 µM [inhibitor, partial curve, poor fit].

Q: For `Cc1cn2c(=O)cc(COC(=O)c3cccc(NC(=O)COc4ccccc4Cl)c3)nc2s1`, which “activity change, negative = inhibition” value is on record?
A: Its value is inactive: -5.74%.

Q: Which “activity change, negative = inhibition” value does the source give for `N#Cc1ccccc1OCCCNC1CCCC1` here?
A: Its value is inactive: -7.72%.

Q: With `Cc1cccc(C(=O)N=c2c(C#N)cc3c(=O)n4cccc(C)c4nc3n2Cc2ccco2)c1` as the compound, how does the Potency read?
A: Its Potency is inconclusive: 44.7 µM [inhibitor, partial curve, poor fit].
